Experimental findings from the supplement of paper PMC11348887 are described below.

Structures are written as SMILES. Where “and” joins values, the source holds several entries; their conditions need not be identical. Identical values can stand only once. Counter-ions that a name gives are not always drawn. The list shows a part of the results. No stated cut-off is given here; in the data, active = -2 or less and inactive = the rest. Most values come without repeats; read them as rough.
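Further: nuclei counted from DAPI counterstain by automated high-content image analysis, four fields per well at ×20 in 384-well plates, with sequential b-score then z-score normalization.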

The experiment deals with hPSC-derived cortical neurons (WA09). Kind of experiment: nuclei number (viability) z-score; higher = more surviving cells. Conditions: 5 µM; treatment: days 7-14 after plating, readout day 21.
Regarding `O=c1cc(-c2ccccc2)oc2c(O)c(O)ccc12` [7,8-Dihydroxyflavone], the “nuclei number (z-score)” value was inactive: 0.648.

In the case of `CCN(CC)CCOC(=O)C1(C2CCCCC2)CCCCC1` [Dicyclomine HCl], the “nuclei number (z-score)” value is inactive: 1.98.

Turning to `CC(=O)Oc1ccccc1C(=O)Nc1ncc([N+](=O)[O-])s1` [Nitazoxanide], the “nuclei number (z-score)” value is inactive: -0.475.

For `NC(=O)c1ccc(N(C(N)=O)c2c(F)cccc2F)nc1-c1ccc(F)cc1F`, the “nuclei number (z-score)” value is inactive: 0.794.

Consider `N=C1NC(=O)/C(=C/c2ccc(O)cc2)S1` [Mirin], for which the “nuclei number (z-score)” value is inactive: 6.84.

With `Nc1c(CC(=O)O)cccc1C(=O)c1ccccc1` [Amfenac Sodium Monohydrate], the “nuclei number (z-score)” value was inactive: -0.161.

As to `CC(C)(C)C(=O)Nc1ccc2c(c1)C(=O)C(=O)c1ccccc1-2`, the “nuclei number (z-score)” value was inactive: -0.0475.

For the molecule `COc1ccc([C@@H]2CC(=O)c3c(O)cc(O)cc3O2)cc1O` [Hesperetin], the “nuclei number (z-score)” value is inactive: -0.367.

Consider `COc1cc(Br)c(Nc2nc(-c3c(C)nc4ncccn34)cs2)c(Br)c1`, for which the “nuclei number (z-score)” value is inactive: 0.928 and inactive: -0.582.

Consider `O=C(O)CCCCCCCC(=O)O` [Azelaic acid], for which the “nuclei number (z-score)” value was inactive: -0.293.

Turning to `COC(=O)Nc1nc2cc(C(=O)c3cccs3)ccc2[nH]1` [Nocodazole], the “nuclei number (z-score)” value was inactive: -1.59.

In the case of `Cc1ccc(C(=O)c2ccc(CC(=O)O)n2C)cc1` [Tolmetin Sodium], the “nuclei number (z-score)” value is inactive: -0.185.

Consider `FC(F)(F)C(Cl)Br` (configuration not stated) [Halothane], for which the “nuclei number (z-score)” value was inactive: 0.712.

In the case of `CCN[C@H]1CN(CCCOC)S(=O)(=O)c2sc(S(N)(=O)=O)cc21` [Brinzolamide], the “nuclei number (z-score)” value was inactive: 0.768.

On to `CC(C)Oc1ccc(-c2c[nH]cc2CN(C)CCN)cc1`, for which the “nuclei number (z-score)” value was inactive: 0.405.

For the molecule `Cc1ncc(C[n+]2csc(CCO)c2C)c(N)n1` [Thiamine HCl (Vitamin B1)], the “nuclei number (z-score)” value was inactive: -0.0576.

For `CC(C)c1c(C(=O)Nc2ccccc2)c(-c2ccccc2)c(-c2ccc(F)cc2)n1CC[C@@H](O)C[C@@H](O)CC(=O)O` [Atorvastatin Calcium], the “nuclei number (z-score)” value was active: -2.68.

In the case of `CC(C)(C)c1cnc(CSc2cnc(NC(=O)C3CCNCC3)s2)o1`, the “nuclei number (z-score)” value is active: -3.82.

On to `C[C@@H](NCCCc1cccc(C(F)(F)F)c1)c1cccc2ccccc12` [Cinacalcet HCl], for which the “nuclei number (z-score)” value was inactive: -0.981.

Take `CC(=O)Nc1cccc(-n2c(=O)n(C3CC3)c(=O)c3c(Nc4ccc(I)cc4F)n(C)c(=O)c(C)c32)c1`: the “nuclei number (z-score)” value was inactive: -0.948.

Take `Nc1[nH]cnc2ncnc1-2` [Adenine HCl]: the “nuclei number (z-score)” value is inactive: -0.0203.

With `OC(Cn1cncn1)(Cn1cncn1)c1ccc(F)cc1F` [Fluconazole], the “nuclei number (z-score)” value is inactive: -0.609.

`NCCc1c[nH]cn1` [Histamine 2HCl]: the “nuclei number (z-score)” value is inactive: 0.35.

Turning to `NCCc1c[nH]cn1` [Histamine Phosphate], the “nuclei number (z-score)” value was inactive: 0.766.

For the molecule `Cc1ccc(S(=O)(=O)c2ccc([N+](=O)[O-])o2)cc1`, the “nuclei number (z-score)” value is active: -3.2.

As to `Cc1cn[nH]c1` [Fomepizole], the “nuclei number (z-score)” value is inactive: 5.01.

For `O=C1NC(=O)C(c2cnc3ccccn23)=C1c1cn2c3c(cc(F)cc13)CN(C(=O)N1CCCCC1)CC2`, the “nuclei number (z-score)” value is active: -2.44.

Take `COc1cc2ncnc(Sc3nnc(C)s3)c2cc1OC`: the “nuclei number (z-score)” value was inactive: -0.951.

As for `O=C(NC[C@H](O)CN1CCc2ccccc2C1)c1cc(NC2COC2)ncn1`, the “nuclei number (z-score)” value was inactive: 0.579.

On to `CNC1CCCN(c2c(F)cc3c(=O)c(C(=O)O)cn(C4CC4)c3c2OC)C1` (configuration not stated) [Balofloxacin], for which the “nuclei number (z-score)” value was inactive: 0.836.

Regarding `CC[C@H]1[C@@H](O)[C@@H]2[C@H](CC[C@]3(C)[C@@H]([C@H](C)CCC(=O)O)CC[C@@H]23)[C@@]2(C)CC[C@@H](O)C[C@@H]12` [Obeticholic Acid], the “nuclei number (z-score)” value was inactive: 0.0866.

As for `C[C@@H](Oc1ccc2[nH]nc(/C=C/c3cnn(CCO)c3)c2c1)c1c(Cl)cncc1Cl`, the “nuclei number (z-score)” value is inactive: -0.106.

As for `C[C@H]1O[C@H](O[C@H]2[C@H](O)[C@@H](O)[C@@H](O[C@H]3[C@H](O)[C@@H](O)C(O)O[C@@H]3CO)O[C@@H]2CO)[C@H](O)[C@@H](O)[C@@H]1N[C@H]1C=C(CO)[C@@H](O)[C@H](O)[C@H]1O` (some centres not stated) [Acarbose], the “nuclei number (z-score)” value is inactive: -0.338.

For `O=c1[nH]c(C2CCCN2)nc2c1oc1ccc(Cl)cc12` (configuration not stated), the “nuclei number (z-score)” value is inactive: 2.67.

For the molecule `N=C(N)NC(=N)NCCc1ccccc1` [Phenformin HCl], the “nuclei number (z-score)” value was inactive: 0.0689.

`CO[C@H]1/C=C/O[C@@]2(C)Oc3c(C)c(O)c4c(O)c(c(/C=N/N5CCN(C6CCCC6)CC5)c(O)c4c3C2=O)NC(=O)/C(C)=C\C=C\[C@H](C)[C@H](O)[C@@H](C)[C@@H](O)[C@@H](C)[C@H](OC(C)=O)[C@@H]1C` [Rifapentine]: the “nuclei number (z-score)” value was inactive: 0.847.

On to `CC(C)Oc1ccc(-c2nc(-c3cccc4c3CC[C@@H]4NCCO)no2)cc1C#N` [Ozanimod (RPC1063)], for which the “nuclei number (z-score)” value was inactive: -0.136.

In the case of `CN1CCC(=C2c3ccccc3C=Cc3ccccc32)CC1` [Cyproheptadine HCl], the “nuclei number (z-score)” value is inactive: -1.53.

As for `CN1CCC(=C2c3ccccc3C=Cc3ccccc32)CC1` [Cyproheptadine hydrochloride], the “nuclei number (z-score)” value was inactive: -0.704.

With `O=C(O)[C@]1(Cc2cccc(Nc3nccs3)n2)CC[C@@H](Oc2cccc(Cl)c2F)CC1`, the “nuclei number (z-score)” value was inactive: 0.485.

Take `COc1cc2c(Nc3ccc(NC(=O)c4ccccc4)cc3)ncnc2cc1OCCCN1CCOCC1`: the “nuclei number (z-score)” value was inactive: 0.477.

For the molecule `CC(=O)Nc1ccc(C(=O)Nc2ccccc2N)cc1` [CI994 (Tacedinaline)], the “nuclei number (z-score)” value was active: -5.44.

Regarding `CCCc1cc(C(N)=S)ccn1` [Protionamide], the “nuclei number (z-score)” value is inactive: -0.859.

On to `COc1cccc2c1c(O)c(C(=O)N(C)c1ccc(C(F)(F)F)cc1)c(=O)n2C` [Tasquinimod], for which the “nuclei number (z-score)” value was inactive: 0.827.

Take `CC(=O)S[C@@H]1CC2=CC(=O)CC[C@]2(C)[C@H]2CC[C@@]3(C)[C@@H](CC[C@@]34CCC(=O)O4)[C@H]12` [Spironolactone]: the “nuclei number (z-score)” value is inactive: -0.00721.

Turning to `C#Cc1cccc(Nc2ncnc3cc(OC)c(OCCCCCCC(=O)NO)cc23)c1`, the “nuclei number (z-score)” value was active: -4.34.

With `CN1CCN(C(=O)/C=C/c2ccc([N+](=O)[O-])o2)CC1`, the “nuclei number (z-score)” value is inactive: -0.655.
